In US20220340635A1 (ZHEJIANG DOER BIOLOGICS, published 2022):
Positions count from the first letter of the chain named.

B1: A001L1F6 (Fc fusion)
chain: HSQGTFTSDYSKYLDSRRAQDFVQWLMNTGGGGSGGGGSGGGGSA[letters of human IgG4 Fc with S228P N297A (EU numbers) omitted]
B2: G232L1F6 (Fc fusion)
chain: B1 chain with S16E, R17Q, R18A, M27L, N28A, T29G
B3: G352L1F6 (Fc fusion)
chain: B1 chain with R17Q, R18A, M27L, N28A, T29G
B4: G382L1F6 (Fc fusion)
chain: B1 chain with R17Q, R18A, M27L, N28D, T29G
B5: G395L1F6 (Fc fusion)
chain: B1 chain with S16E, R17E, R18A, M27L, N28A, T29G
B6: G402L1F6 (Fc fusion)
chain: B1 chain with S16E, R17E, R18A, M27L, N28D, T29G
B7: F9L5W (Fc fusion)
chain: [letters of human IgG1 Fc with changes omitted]GGGGAGGGGAGGGGAHPIPDSSPLLQFGGQVRQRYLYTDDAQQTEAHLEIREDGTVGGAADQSPESLLQLKALKPGVIQILGVKTSRFLCQRPDGALYGSLHFDPEACSFRELLLEDGYNVYQSEAHGLPLHLPGNKSPHRDPAPRGPARFLPLPGLPPALPEPPGILAPQPPDVGSSDPLSMVGPSQGRSPSYAS
B8: F6L5M2 (Fc fusion)
chain: [letters of human IgG4 Fc with S228P N297A (EU numbers) omitted]GGGGAGGGGAGGGGAHPIPDSSPLLQFGGQVRQRYLYTDDAQQTEAHLEIREDGTVGGAADQSPESLLQLKALKPGVIQILGVKTSRFLCQRPDGALYGSLHFDPEACSFRERLLEDGYNVYQSEAHGLPLHCPGNKSPHRDPAPRGPCRFLPLPGLPPALPEPPGILAPQPPDVGSSDPLSMVGGSQGRSPSYES
B9: C0382L1F6 (Fc fusion)
chain: HSQGTFTSDYSEYLDSERARDFVAWLEAGGGGGGSGGGGSGGGGSA[letters of human IgG4 Fc with S228P N297A (EU numbers) omitted]

molecular target: GCGR; assay: cell-based or functional assay

Row | Binder | EC50 (nM) GCGR
1 | B1 | 7.98 nM
2 | B2 | 1.16 nM
3 | B3 | 1.44 nM
4 | B4 | 0.97 nM
5 | B5 | 1.03 nM
6 | B6 | 1.19 nM

molecular target: T1, human GLP-1R (human, UniProt P43220 24-463); assay: cell-based or functional assay

Row | Binder | EC50 (nM) GLP-1R
7 | B1 | 380 nM
8 | B2 | 591 nM
9 | B3 | 372 nM
10 | B4 | 407 nM
11 | B5 | 406 nM
12 | B6 | 396 nM

molecular target: β-klotho (KLB); assay: cell-based or functional assay

Row | Binder | FGF21 activity (EC50, nM)
13 | B7 | 0.48 nM
14 | B8 | 0.71 nM

molecular target: GCGR; assay: cell-based or functional assay; remark: another data set of the same source

Row | Binder | GCGR agonist activity (EC50, nM)
15 | B9 | 4.84 nM

molecular target: T1, human GLP-1R; assay: cell-based or functional assay; remark: another data set of the same source

Row | Binder | GLP-1 R agonist activity (EC50, nM)
16 | B9 | 3.12 nM
